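Method: 48-hour compound exposure of cells in 96-well plates, five concentrations, linear interpolation of endpoints. GI50 marks 50% less growth. TGI denotes the concentration required for complete inhibition of growth.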

This assay has as its system NCI-H322M lung. Description: NCI-60 cell line screen, 48 h.
For the molecule `COc1ccccc1N1CCN(C2=NN=C(c3cccc(Cl)c3)c3ccccc3C2)CC1`, the GI50 is 0.631 µM and the TGI is above 100 µM.
On to `CC(=O)Nc1cccc(-n2cnc3cc(-c4ccc(O)cc4)ccc32)c1`, for which the GI50 is 10.5 µM and the TGI came out at 33.4 µM.
On the same counts, the results for `O=C(N/N=C\c1ccc(F)cc1)c1ccc2nc(-c3ccc(Br)cc3)[nH]c2c1` are 2.52 µM and 8.18 µM.
